PMC4336329 (PLoS ONE, 2015)
Screen size: about 310,000 compounds; about 2,200 (0.71%) showed an effect of 50% or more. Effects have a minus sign here. This is one part of the list.

What follows are compounds tested against human ether-à-go-go-related gene (hERG) potassium channel (human, UniProt Q12809) (assay: primary screen, population patch clamp on CHO cells stably expressing hERG).
Sequence of human ether-à-go-go-related gene (hERG) potassium channel (Q12809 whole entry, looked up): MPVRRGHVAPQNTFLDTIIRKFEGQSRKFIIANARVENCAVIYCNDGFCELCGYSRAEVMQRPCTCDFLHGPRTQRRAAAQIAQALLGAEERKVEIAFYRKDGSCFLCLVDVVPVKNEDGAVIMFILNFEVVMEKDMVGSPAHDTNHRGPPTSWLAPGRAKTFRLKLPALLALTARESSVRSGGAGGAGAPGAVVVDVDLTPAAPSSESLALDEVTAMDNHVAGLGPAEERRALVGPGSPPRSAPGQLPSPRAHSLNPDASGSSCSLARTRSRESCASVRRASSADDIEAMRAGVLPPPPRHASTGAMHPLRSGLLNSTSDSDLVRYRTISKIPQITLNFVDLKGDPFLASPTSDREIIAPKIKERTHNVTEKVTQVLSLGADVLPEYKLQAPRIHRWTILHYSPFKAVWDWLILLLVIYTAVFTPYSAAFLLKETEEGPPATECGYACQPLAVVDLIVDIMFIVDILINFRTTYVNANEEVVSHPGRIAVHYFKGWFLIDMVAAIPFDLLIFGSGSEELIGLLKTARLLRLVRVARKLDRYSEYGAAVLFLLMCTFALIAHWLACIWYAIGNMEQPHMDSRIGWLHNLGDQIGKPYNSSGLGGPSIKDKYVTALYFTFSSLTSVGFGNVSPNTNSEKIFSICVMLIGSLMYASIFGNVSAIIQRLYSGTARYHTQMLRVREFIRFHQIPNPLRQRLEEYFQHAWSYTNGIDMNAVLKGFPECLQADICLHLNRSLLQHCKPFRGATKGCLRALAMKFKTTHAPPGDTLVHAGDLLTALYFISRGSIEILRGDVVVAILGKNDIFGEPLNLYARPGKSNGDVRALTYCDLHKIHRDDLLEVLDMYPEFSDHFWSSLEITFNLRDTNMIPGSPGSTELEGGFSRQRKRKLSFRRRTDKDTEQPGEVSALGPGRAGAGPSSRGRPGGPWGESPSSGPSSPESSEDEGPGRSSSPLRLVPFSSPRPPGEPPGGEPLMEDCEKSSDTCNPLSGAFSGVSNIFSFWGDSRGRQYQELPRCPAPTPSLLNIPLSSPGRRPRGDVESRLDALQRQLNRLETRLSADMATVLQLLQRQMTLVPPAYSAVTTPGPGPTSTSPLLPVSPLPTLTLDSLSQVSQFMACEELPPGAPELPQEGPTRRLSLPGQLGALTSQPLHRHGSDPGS
In the case of `CN1C(C(=O)NCC2CC2)CC2Cn3c(nc4cc(Cl)c(Cl)cc43)C21` (stereo not shown), the “hERG current change (%, negative = inhibition) at 1uM” value is reported as -0.922%. For `CSc1nnc(Cn2c(=O)sc3ccccc32)n1-c1ccccc1`, the “hERG current change (%, negative = inhibition) at 1uM” value was 4.93%. In the case of `S=C(NCc1ccco1)N1CCN(c2ccc(Cl)cc2)CC1`, the “hERG current change (%, negative = inhibition) at 1uM” value is reported as 14.1%. `CCCC(C)NC(=O)CN1C(=O)NC2(CCc3ccccc32)C1=O` (stereo not shown) was tested, and the “hERG current change (%, negative = inhibition) at 1uM” value was 21%. `Cc1ccc(-c2noc(CSc3nnc(CCc4ccccc4)n3-c3ccccc3)n2)cc1` was tested, and the “hERG current change (%, negative = inhibition) at 1uM” value was -8.03%. For `CCOC(=O)C(NC(C)=O)(Nc1ccc(S(=O)(=O)Nc2nccs2)cc1)C(F)(F)F` (stereo not shown), the “hERG current change (%, negative = inhibition) at 1uM” value was 9.64%. In the case of `Cc1ccc(C)c(NC(=O)c2cnn(-c3ccccc3)c2C)c1`, the “hERG current change (%, negative = inhibition) at 1uM” value is reported as 21.2%. `Cc1ccc(CNC(=O)c2cc(=O)c3ccc(C)cc3o2)cc1` was tested, and the “hERG current change (%, negative = inhibition) at 1uM” value was 14%. With `O=C(Nc1ccc2oc(=O)ccc2c1)c1cccnc1Cl` the “hERG current change (%, negative = inhibition) at 1uM” value was -2.76%. `O=C(Nc1cccc(F)c1)c1cccnc1N1CCOCC1` was tested, and the “hERG current change (%, negative = inhibition) at 1uM” value was 7.09%. For `COc1ccc(-c2cc(C(=O)Nc3ccc4c(c3)OCO4)no2)cc1`, the “hERG current change (%, negative = inhibition) at 1uM” value was 12.3%. In the case of `CCOC(=O)Cn1c(-c2ccc(OC)cc2)c(-c2ccc(OC)cc2)nnc1=O`, the “hERG current change (%, negative = inhibition) at 1uM” value is reported as 21.3%. With `CCc1ccc2[nH]c3nc(N/N=C/c4cccc(O)c4)nnc3c2c1` the “hERG current change (%, negative = inhibition) at 1uM” value was 10.4%. `Clc1cccc(-c2ccc(C=Nc3ccc(N4CCOCC4)cc3)o2)c1` was tested, and the “hERG current change (%, negative = inhibition) at 1uM” value was 4.98%. For `CC(C)NS(=O)(=O)c1ccc(OCC(N)=O)c(Cl)c1`, the “hERG current change (%, negative = inhibition) at 1uM” value was 16.4%. For `Cc1cc(-c2ccc(C)c(S(=O)(=O)NCCCN(Cc3ccccc3)C(C)C)c2)on1`, the “hERG current change (%, negative = inhibition) at 1uM” value was 15.7%. In the case of `C=C(C)CNC(=S)NN=C1c2ccccc2-c2ccccc21`, the “hERG current change (%, negative = inhibition) at 1uM” value is reported as 4.21%. With `O=C(O)CCn1c(-c2ccccc2)cc2ccccc21` the “hERG current change (%, negative = inhibition) at 1uM” value was 1.5%. `c1ccc(COc2ccc(OCCCn3cncn3)cc2)cc1` was tested, and the “hERG current change (%, negative = inhibition) at 1uM” value was -4.48%. `O=C(Nc1ccc(C(=O)N2CCOCC2)cc1)c1cc(-c2cccnc2)nc2ccc(Cl)cc12` was tested, and the “hERG current change (%, negative = inhibition) at 1uM” value was 10.4%. `Cc1ccc(C(=O)CNc2cccc([N+](=O)[O-])c2)cc1` was tested, and the “hERG current change (%, negative = inhibition) at 1uM” value was 14.7%. For `COc1ccccc1N1CC(C(=O)Nc2nnc(SCC(=O)NC(C)C)s2)CC1=O` (stereo not shown), the “hERG current change (%, negative = inhibition) at 1uM” value was 12.9%. In the case of `NC(=O)c1ccc(NC(=O)Cc2csc(-c3ccccc3)n2)cc1`, the “hERG current change (%, negative = inhibition) at 1uM” value is reported as 8.68%. For `Cc1ccc(C)c(N2CCN(c3ccncc3N)CC2)c1`, the “hERG current change (%, negative = inhibition) at 1uM” value was 8.83%. For `COC(=O)CCS(=O)(=O)c1cc(Cl)ccc1Cl`, the “hERG current change (%, negative = inhibition) at 1uM” value was 14.7%. In the case of `NC(=O)CCCn1c(C(=O)c2ccc(Cl)cc2)c2ccc([N+](=O)[O-])cc2[n+]1[O-]`, the “hERG current change (%, negative = inhibition) at 1uM” value is reported as -58.2%. `S=c1[nH]ccn1Cc1ccccc1` was tested, and the “hERG current change (%, negative = inhibition) at 1uM” value was 4.9%. With `Cc1ccc(NC(=O)CC2C(=O)NCCN2C(=S)Nc2ccccc2)c(C)c1` (stereo not shown) the “hERG current change (%, negative = inhibition) at 1uM” value was 7.95%. For `CCOC(=O)c1c(C)[nH]c(C(=O)COC(=O)/C=C/c2ccc(OC(F)F)cc2)c1C`, the “hERG current change (%, negative = inhibition) at 1uM” value was 12%. With `CCOC(=O)C1ON2CCCCC2C1(O)C(F)(F)F` (stereo not shown) the “hERG current change (%, negative = inhibition) at 1uM” value was 15.8%. With `O=C(O)CCSc1ccc([N+](=O)[O-])cc1[N+](=O)[O-]` the “hERG current change (%, negative = inhibition) at 1uM” value was 11.8%. In the case of `Nc1nc(NCC2CCCO2)nc(Nc2ccc(Cl)cc2)c1[N+](=O)[O-]` (stereo not shown), the “hERG current change (%, negative = inhibition) at 1uM” value is reported as 10.5%. `COc1cc(C(=O)OCC(=O)c2cc(C)n(CC3CCCO3)c2C)ccc1OCC(=O)N1CCOCC1` (stereo not shown) was tested, and the “hERG current change (%, negative = inhibition) at 1uM” value was 13.1%. In the case of `CCOC(=O)Cn1cnc2c(C#N)c3n(c2c1=O)CCCCC3`, the “hERG current change (%, negative = inhibition) at 1uM” value is reported as 5.77%. With `O=C(COc1ccccc1)N(CCc1ccccc1)c1nc(-c2ccc(F)cc2)cs1` the “hERG current change (%, negative = inhibition) at 1uM” value was 4.35%. With `CCOC1CCCCC1NS(=O)(=O)c1ccc(Cl)cc1` (stereo not shown) the “hERG current change (%, negative = inhibition) at 1uM” value was 10.3%. For `Cc1cccc(C(=O)NNc2ncnc3c2cnn3C)c1`, the “hERG current change (%, negative = inhibition) at 1uM” value was 13.2%. For `Oc1ccc(-c2[nH]ncc2-c2cccc3cccnc23)c(O)c1`, the “hERG current change (%, negative = inhibition) at 1uM” value was 28%. `C=CCn1c(-c2sccc2C)n[nH]c1=S` was tested, and the “hERG current change (%, negative = inhibition) at 1uM” value was 15.4%. In the case of `CC(=O)N1c2ccc(S(=O)(=O)N(C)CC(=O)Nc3ccccc3C)cc2CC1C` (stereo not shown), the “hERG current change (%, negative = inhibition) at 1uM” value is reported as 12.5%. In the case of `Cc1ccc(NC(=O)/C=C/c2ccco2)cc1S(=O)(=O)N1CCCCCC1`, the “hERG current change (%, negative = inhibition) at 1uM” value is reported as 7.46%. In the case of `O=C(CCC(=O)N1CCN(S(=O)(=O)c2ccc(Cl)cc2)CC1)Nc1cccc(Br)c1`, the “hERG current change (%, negative = inhibition) at 1uM” value is reported as -7.03%. `COC(=O)c1ccc(NC(=O)Cc2ccccc2)cc1` was tested, and the “hERG current change (%, negative = inhibition) at 1uM” value was -2.84%. With `Cc1cc(C)cc(OCC(=O)N(Cc2ccccc2)C2CCS(=O)(=O)C2)c1` (stereo not shown) the “hERG current change (%, negative = inhibition) at 1uM” value was 5.79%. For `O=C(c1cc2ccccc2o1)n1nnc2ccccc21`, the “hERG current change (%, negative = inhibition) at 1uM” value was 9.55%. With `COc1ccccc1C1=NOC(COC(=O)c2ccc3ccccc3n2)C1` (stereo not shown) the “hERG current change (%, negative = inhibition) at 1uM” value was 0.805%. With `Cc1ccc2c(N)c(C)ccc2c1` the “hERG current change (%, negative = inhibition) at 1uM” value was 5.33%. With `CC(C)(NC(=O)c1ccccc1)c1nc2ccccc2s1` the “hERG current change (%, negative = inhibition) at 1uM” value was 7.52%. With `Cc1nonc1OCCNCCNc1ccc([N+](=O)[O-])cc1Cl` the “hERG current change (%, negative = inhibition) at 1uM” value was -30.9%. With `O=C(CSc1ccc(-c2ccncc2)nn1)c1ccc(Cl)cc1` the “hERG current change (%, negative = inhibition) at 1uM” value was 9.84%. With `CCOC(=O)CNC(=O)Cn1cnc2c(nnn2-c2cccc(Cl)c2)c1=O` the “hERG current change (%, negative = inhibition) at 1uM” value was -0.825%. For `COc1ccccc1NS(=O)(=O)c1cc(NC(=O)c2[nH]c(C)c(C(C)=O)c2C)ccc1N1CCOCC1`, the “hERG current change (%, negative = inhibition) at 1uM” value was 7.47%. In the case of `Cc1cc(C)cc(CC2CC(=O)N(c3ccc([N+](=O)[O-])cc3)C2=O)c1` (stereo not shown), the “hERG current change (%, negative = inhibition) at 1uM” value is reported as 11%. `O=C(NC12CC3CC(CC(C3)C1)C2)c1ccc(Br)o1` was tested, and the “hERG current change (%, negative = inhibition) at 1uM” value was 12.6%. For `CSc1nnc(NC(=O)c2cc3ccccc3oc2=O)s1`, the “hERG current change (%, negative = inhibition) at 1uM” value was 8.22%. For `Cn1ccnc1SCC(=O)c1ccc(OC(F)F)cc1`, the “hERG current change (%, negative = inhibition) at 1uM” value was -6.59%. With `Cc1cc(COc2ccccc2OCCN2CCN(C)CC2)no1.Cl` the “hERG current change (%, negative = inhibition) at 1uM” value was 5.65%. With `COc1ccc(NC(=O)c2ccc(N(C)S(C)(=O)=O)cc2)cc1OC` the “hERG current change (%, negative = inhibition) at 1uM” value was 10.8%.
